Assay results taken from PubChem BioAssay AID1347073 (National Center for Advancing Translational Sciences (NCATS), 2019).
Screen size: about 45,000 compounds; about 200 (0.44%) were called active. Another 7% or so got no clear call; they are omitted. The call rests on the fitted dose curve; in most records, active means well fitted activation curve with a large enough effect; inconclusive means small, poorly fitted or top-dose-only effect; inactive means no such curve, though single readings can be large or run the other way. This is one part of the list.

Test: qHTS of TDP-43 Inhibitors: NCGC Sytravon Library Screen; further: nearly all actives have a fitted effect of over 55% in size; on growth rescue (activation): 0% is about no effect
Settings: yeast TDP-43 toxicity rescue, BacTiter-Glo growth, 24 h; series mostly up to 46.1 µM; growth rescue (activation): at the top concentration
Procedure, shortened: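 TDP-43-expressing yeast, pregrown in raffinose, seeded at OD600 0.02 in galactose medium with compound for 24 hr at 30 deg C. Growth read by BacTiter-Glo luminescence, so rescue of toxicity appears as activation.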
Potency means the concentration at half of the fitted maximal effect.

Structure (SMILES)	growth rescue (activation)	Potency
O=C(O)c1cccc(-n2c(/C=C/c3ccccc3)nc3ccccc3c2=O)c1	inactive: -17.3%	
Cc1ccc(NC2c3ccccc3C(=O)N2c2cccnc2)cc1 (stereo not drawn)	inactive: 33.8%	
CCN(CC)C(=S)NC(=O)c1cccnc1	inactive: -7.55%	
CCOc1ccccc1NC(=O)CSC1=NN2CCCC(=O)N=C2S1	inactive: 16.2%	
COc1ccccc1N1CCN(C2CCCN(C(=O)c3ccoc3C)C2)CC1 (stereo not drawn)	inactive: -13.1%	
Cc1ccc(OCCN2C(=O)S/C(=C\c3ccc(C)o3)C2=O)cc1	inactive: -5.35%	
COc1cccc(-c2noc(Cn3nc(C(=O)O)c4ccccc4c3=O)n2)c1	inactive: 5.37%	
CNC(=O)/C(C#N)=C1/SC(Cc2ccc(F)cc2)C(=O)N1c1ccccc1 (stereo not drawn)	inactive: 5.62%	
O=C(NNC(=O)C1CCN(c2ncccn2)CC1)c1ccncc1	inactive: -2.84%	
COc1ccc(NC(=O)c2cc(C3CCCCN3C(=O)c3cc(C(C)(C)C)nn3C)on2)c(C)c1 (stereo not drawn)	inactive: 13.3%	
Cc1cccc2sc(NC(=O)C3CCN(C(=O)c4ccco4)CC3)nc12	inactive: 26.2%	
Cc1nn(-c2ccccc2)c(Cl)c1/C=N/N1CCN(c2ccccn2)CC1	inactive: 5.39%	
O=C(O)/C(=C\c1cccs1)c1ccccc1	inactive: 11.5%	
CCc1ccc(N(C(=O)Cn2nnc(-c3ccccc3)n2)C(C(=O)NC2CCCCC2)c2ccccn2)cc1 (stereo not drawn)	inactive: -3.69%	
Cc1ccccc1NC(=O)c1cccc(S(C)(=O)=O)c1	inactive: 7.8%	
Cc1ccc(N(Cc2ccc(C(=O)Nc3c(C)n(C)n(-c4ccccc4)c3=O)cc2)S(C)(=O)=O)cc1C	inactive: -1.91%	
Cc1cccc(NS(=O)(=O)c2cc(Cl)ccc2Cl)n1	inactive: 3.08%	
CC(=O)c1cccc(NC(=O)Cc2coc3cc4c(cc23)CCC4)c1	inactive: -19.6%	
CSCCC(NC(=O)c1occc1C)C(=O)O (stereo not drawn)	inactive: -13.6%	
O=C(NC(=S)NCCO)c1cn(-c2ccccc2)nc1-c1ccccc1	inactive: 4.45%	
COc1ccc2cc(C(=O)C3CCCN(C(=O)c4csnn4)C3)ccc2c1 (stereo not drawn)	inactive: 21.8%	
O=C(Nc1ccc(C(F)(F)F)cc1)c1ccc2nc[nH]c2c1	inactive: 7.64%	
COc1ccc(-c2c(-c3ccc(OCC(=O)NN)cc3O)n[nH]c2C)cc1OC	inactive: 16.5%	

Structure (SMILES)	growth rescue (activation)	Potency
CCOc1ccc(Cl)cc1-c1cc(C(=O)Nc2ccc(OC)cc2OC)[nH]n1	inactive: 15.9%	
CC(C)CC(=O)NC(c1cccs1)c1ccc2cccnc2c1O (stereo not drawn)	inactive: 20.4%	
Cc1nn(CCCC(=O)Nc2cccnc2)c(C)c1[N+](=O)[O-]	inactive: 10.5%	
CC(C)n1nc(C(=O)Nc2nc3ccccc3[nH]2)c2ccccc2c1=O	inactive: 16.4%	
CCCNC(=O)c1cc(C2CCCCN2C(=O)CCc2ccccc2)on1 (stereo not drawn)	inactive: 10.9%	
Cc1ccc(NC(=O)CN2C(=O)C3CCCCN3C(=O)c3ccccc32)cc1 (stereo not drawn)	inactive: 7.02%	
COC(=O)C(Cc1ccccc1)NC(=O)CCNC(=O)c1ccc(Br)cc1 (stereo not drawn)	inactive: -1.27%	
Cc1ccsc1C(=O)N1CCCC1(C)C(=O)NCC(C)C (stereo not drawn)	inactive: 5.66%	
COc1ccc([N+](=O)[O-])cc1N(CC(O)CN1C(=O)NC(C)(C)C1=O)S(=O)(=O)c1ccccc1 (stereo not drawn)	inactive: 2.17%	
COCCNC(=O)C1CCCN(Cc2cccc(C(F)(F)F)c2)CC1 (stereo not drawn)	inactive: 7.19%	
CCCOCc1ccc(O)c2ncccc12	inactive: 0.242%	
O=C(COC(=O)C1CCN(S(=O)(=O)c2cccs2)CC1)NCc1ccccc1	inactive: -0.0251%	
COc1ccc(Cn2c(O)c(C=Nc3ccc(OC)cc3)c3ccccc3c2=O)cc1	inactive: 12.6%	
CCC(=O)N(CCC(c1ccc(C)cc1)c1ccco1)Cc1ccco1 (stereo not drawn)	inactive: 21.8%	
O=c1c2c([nH]c3ccccc13)CCCC2	inactive: -22%	
Cc1cc(C)c(N(CC(=O)NCc2ccccc2)C(=O)c2csnn2)c(C)c1	inactive: -2.97%	
CC(C)N(CC(O)COc1ccc(CC(N)=O)cc1)CC(O)COc1ccc(CC(N)=O)cc1 (stereo not drawn)	inactive: -22.3%	
O=S(=O)(NCCC(c1ccc(F)cc1)c1ccco1)c1ccccc1 (stereo not drawn)		active: 17.8 µM
N#Cc1nc(-c2ccc([N+](=O)[O-])cc2)oc1N1CCCCC1	inactive: 7.05%	
NC(=O)c1nsc(C(=O)N(CC(=O)NCc2ccccc2)c2ccc(F)cc2)c1N	inactive: -5.6%	
O=C(NC1CCCC1)C(c1cccnc1)N(C(=O)c1ccco1)c1cccc(F)c1 (stereo not drawn)	inactive: 9.92%	
N#Cc1c(-c2ccc(F)cc2)ccnc1N1CCOCC1	inactive: 23.2%	
COc1cccc(N2C(=O)C3CCCN3C2c2cccs2)c1 (stereo not drawn)	inactive: -8.22%	

Structure (SMILES)	growth rescue (activation)	Potency
O=C(/C=C/c1ccco1)NC(=S)Nc1ccc(C(=O)O)cc1	inactive: 13.7%	
Cc1nn(-c2ccccc2)c(N)c1N=Nc1cccc(S(=O)(=O)N2CCOCC2)c1	inactive: 27.9%	
Fc1ccccc1C1CCN(Cc2nc(CC3CC3)no2)C1 (stereo not drawn)	inactive: -1.54%	
N#C/C(=C\c1cn(Cc2ccc(C#N)cc2)c2ccccc12)C(=O)NCc1cccs1	inactive: 10.7%	
CNCC(O)CN1CCN(c2ccccc2OC)CC1 (stereo not drawn)	inactive: -12.4%	
O=C(CSc1nnnn1-c1ccc(C(=O)O)cc1)NC1CCCCC1	inactive: 4.26%	
Cc1nn(-c2ccccc2)c(Cl)c1C(=O)NCc1ccccc1F	inactive: 2.83%	
Cn1c(SCC(=O)NCCc2ccccc2)nnc1C1CCCCC1	inactive: 5.83%	
O=C(Nc1ccccc1-c1nnc(SCc2ccc(Cl)cc2Cl)o1)c1ccccc1	inactive: -5.2%	
COc1ccc(CC(=O)NCc2nnc(SCc3ccc([N+](=O)[O-])cc3)n2C)cc1	inactive: 10.1%	
O=C(OCC(=O)N(Cc1ccccc1)C1CCS(=O)(=O)C1)c1cc2c(s1)CCCC2 (stereo not drawn)	inactive: -2.86%	
COc1ccc(N2C(=O)CSC2c2ccc(F)c(F)c2)cc1 (stereo not drawn)	inactive: 3.33%	
CCN(CC(=O)Nc1cc(C)nn1-c1nc(C)cc(C)n1)Cc1ccccc1	inactive: -7.31%	
CN(C)S(=O)(=O)c1cc(NC(=O)COC(=O)c2ccc3c(c2)OCO3)ccc1Cl	inactive: -5.68%	
COc1ccc(Cl)cc1N(CC(=O)NC1CC1)S(=O)(=O)c1ccc(C)c([N+](=O)[O-])c1	inactive: 9.73%	
Brc1ccccc1-c1nnc(COc2ncnc3ccccc23)o1	inactive: -7.25%	
O=C(NCC1COc2ccccc2O1)c1cccc(S(=O)(=O)N2CCOCC2)c1 (stereo not drawn)	inactive: 11.6%	
COc1ccc(CN(C)CC(O)COC(c2ccc(OC)cc2)c2ccc(OC)cc2)cc1 (stereo not drawn)	inactive: 5.5%	
Cc1c(OCC(=O)N(C)C)ccc2c(-c3ccccc3)cc(=O)oc12	inactive: 11.1%	
N#C/C(=C(/O)CCl)c1nc(-c2ccccc2)cs1	inactive: 22.2%	
O=C(O)CCCCCn1c(SCC(=O)Nc2ccc(F)cc2)nc2ccsc2c1=O	inactive: -4.27%	
CC[n+]1ccc(C)c2cc(SC(F)(F)F)ccc21	inactive: 2.77%	
